Results as given in PubChem BioAssay AID686978 (National Center for Advancing Translational Sciences (NCATS), 2013).
Among all 420,000 compounds or so, about 64,000 (15%) were called active. Inconclusive results, whose numbers are uncertain, are shown with a selection of clear calls. The call rests on the fitted dose curve; in most records, active means well fitted inhibition curve with a large enough effect; inconclusive means small, poorly fitted or top-dose-only effect; inactive means flat fitted curve, though single readings scatter. Potencies of inconclusive entries are left out as doubtful fits.

Experiment: qHTS for Inhibitors of human tyrosyl-DNA phosphodiesterase 1 (TDP1): qHTS in cells in absence of CPT; further: nearly all actives have a fitted effect of over 55% in size
Conditions: DT40 Tdp1-/- hTDP1 cells, no CPT, ATP luminescence, 48 h; activity change, negative = growth inhibition: at 46.2 µM (top of the series) unless noted
Procedure, shortened: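 Chicken DT40 Tdp1-/- cells complemented with human TDP1, screened without camptothecin (DMSO vehicle only), 400 cells/well. Compounds pin-transferred, cells incubated at 37 °C for at least 48 hr. Growth read as ATP-dependent luminescence (CellTiter-Glo, 30 min at RT).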
On the % scale 0 is the no-effect control and ±100 the full control effect; potency means the concentration at half of the fitted maximal effect; tags describe the fitted curve by direction and shape.

Row | Compound | Potency | activity change, negative = growth inhibition
1 | COc1c2c(c(C)c3c1C(=O)OC3)O[C@@]1(C)CC[C@@]3(O)C(C)(C)OC(=O)CC[C@]3(C)[C@H]1C2 | inconclusive [inhibitor, partial curve] | 
2 | Nc1nc(Nc2ccccc2)nc(N2CCCC2)c1[N+](=O)[O-] | inconclusive [inhibitor, single point] | 
3 | Nc1nc(SCc2ccc([N+](=O)[O-])cc2)c2ncn([C@@H]3O[C@H](CO)[C@@H](O)[C@H]3O)c2n1 |  | inactive: -27.3%
4 | S=C(NCCSCc1ccc(Cl)cc1)Nc1ccccc1 | inconclusive [inhibitor, single point] | 
5 | CCOC(=O)C1CCN(c2nc3c(S(=O)(=O)c4ccccc4)nnn3c3ccsc23)CC1 | active: 20.6 µM | 
6 | CCOc1cc(N2CCOCC2)c(OCC)cc1NC(=O)c1[nH]c(C)c(C(C)=O)c1C | active: 5.8 µM | 
7 | Cc1ccc(N=Nc2ccc(C)cc2NC(=O)Nc2ccccc2F)cc1 | active: 20.6 µM | 
8 | CC1=C(C(=O)N(C(C)C)C(C)C)CC(CC(=O)NCc2ccco2)C(=O)N1CCCN1CCCC1=O (stereo not drawn) |  | inactive: 4.22%
9 | O=[N+]([O-])c1ccc2nc(C3CCCCC3)[nH]c2c1 | inconclusive [inhibitor, single point] | 
10 | CC(C)CC(N)c1csc(Nc2ccc(C(=O)NCCCO)cn2)n1 (stereo not drawn) | inconclusive [inhibitor, single point] | 
11 | O=C(Nc1ccc(N2CCN(C(=O)c3ccco3)CC2)c(Cl)c1)c1cccnc1 | inconclusive [inhibitor, single point] | 
12 | COc1ccc(NC(=O)CSc2nccn2Cc2ccco2)cc1 | inconclusive [inhibitor, single point] | 
13 | CC1=C(c2ccc(C)c(C)c2)S(=O)(=O)N=C1N1CCC(C(=O)N2CCC(C(N)=O)CC2)CC1 |  | inactive: 6.68%
14 | CCOc1ccccc1N1CC(C(=O)Nc2ccccc2N2CCCC2)CC1=O (stereo not drawn) | inconclusive [inhibitor, partial curve] | 
15 | CCC(NC(=O)c1cc(COc2cncc(Cl)c2)on1)c1ccncc1 (stereo not drawn) | inconclusive [inhibitor, single point] | 
16 | CCc1noc(C)c1C(=O)Nc1nc(-c2cccs2)cs1 | inconclusive [inhibitor, single point] | 
17 | O=C1COc2cc(S(=O)(=O)NCc3ccco3)c(Cl)cc2N1 | inconclusive [inhibitor, single point] | 
18 | O=c1c2oc3ccccc3c2n(Cc2ccc(Cl)cc2)c(=O)n1Cc1ccco1 |  | inactive: -16.8%
19 | Oc1ccccc1C(=S)N1CCCCC1 | inconclusive [inhibitor, single point] | 
20 | O=C(O)CC(NC(=S)NCc1ccccc1)C(=O)O (stereo not drawn) | inconclusive [inhibitor, partial curve] | 
21 | Cc1cc(=O)n2nc(N3CCC(C(=O)NCCc4ccc(Cl)cc4)CC3)sc2n1 |  | inactive: -13.2%
22 | CC(Sc1nc(=O)cc(N)n1CCc1ccccc1)C(=O)Nc1ccc(Cl)cc1 (stereo not drawn) | inconclusive [inhibitor, single point] | 
23 | CCOc1ccc(NC(=O)CN(C)C(=O)c2cc([N+](=O)[O-])ccc2Sc2ccccc2)cc1OCC | inconclusive [inhibitor, single point] | 
24 | CC1=CC(C)(C)N(S(=O)(=O)c2ccc(F)cc2)c2ccccc21 | inconclusive [inhibitor, single point] | 
25 | C[C@]12CCC(=O)C=C1CC[C@@H]1[C@@H]2CC[C@@]2(C)[C@H]1CC[C@@]21CCC(=O)O1 | active: 9.2 µM | 

Row | Compound | Potency | activity change, negative = growth inhibition
26 | COc1ccc2c(c1)c1nc3ccccc3nc1n2Cc1ccc(OC)c(OC)c1 | inconclusive [inhibitor, single point] | 
27 | O=C(Nc1ccc2c(c1)OCO2)C1CCN(C(=O)c2ccc(Br)cc2)CC1 | inconclusive [inhibitor, single point] | 
28 | Nc1ncnc2c1nc(Br)n2C1CC(O)C(CO)O1 (stereo not drawn) | inactive | 
29 | CCCCc1nnc2c(N(C)S(=O)(=O)c3ccccc3)nc3ccccc3n12 | inconclusive [inhibitor, single point] | 
30 | O=c1[nH]c(C2CCN(S(=O)(=O)c3cccc(Cl)c3)CC2)nc2c1nnn2Cc1ccccc1 | inconclusive [inhibitor, single point] | 
31 | N/C(=N\OC(=O)COc1ccc(Br)cc1)c1cccnc1 | inconclusive [inhibitor, full curve] | 
32 | Cn1ccnc1Sc1ccc(C(N)=O)cc1[N+](=O)[O-] |  | inactive: 4.78%
33 | CCOc1ccc(C(=O)CCC(=O)N(CC)CC(=O)NCc2ccc(Cl)cc2)cc1 | inconclusive [inhibitor, single point] | 
34 | CCCCC[C@@H](O)c1cc2ccccc2c(=O)o1 | inconclusive [inhibitor, single point] | 
35 | COc1cc(Nc2ncnc(N)n2)cc(OC)c1 |  | inactive: -17.2%
36 | Cc1cc(C(=O)NCc2cc(F)cc3c2OCOC3)nn1C |  | inactive: -3.55%
37 | CC(C)C(c1nnnn1Cc1ccccc1)N1CCN(Cc2ccco2)CC1 (stereo not drawn) |  | inactive: -22.6%
38 | CC(C)CCn1c(Oc2ccccc2Cl)nc2c1c(=O)n(C)c(=O)n2C | inconclusive [inhibitor, single point] | 
39 | Cc1cc(C(=O)OCn2nnc3ccccc3c2=O)c(C)n1-c1ccccc1 | active: 18.4 µM | 
40 | O=C1S/C(=C\c2ccc(N3CCOCC3)o2)C(=O)N1c1ccccc1 | active: 8.2 µM | 
41 | C/C(=N\NC(=O)C1COc2ccccc2O1)c1ccc(N2CCOCC2)cc1 (stereo not drawn) |  | inactive: -14.5%
42 | CCOc1ccc(CCNC(=O)CSCc2ccc(C)cc2)cc1OCC | inconclusive [inhibitor, single point] | 
43 | COc1ccc(CC(=O)NCC2(c3ccc(OC)c(OC)c3)CCCC2)cc1 | inconclusive [inhibitor, single point] | 
44 | CCCCOc1ccc(C(=O)Nc2ccc(SC(F)F)cc2)cc1OC | inconclusive [inhibitor, single point] | 
45 | Cc1ccc(-c2csc3nc4c5ccccc5c(NCCCN(C)C)nn4c(=O)c23)cc1 | active: 18.4 µM | 
46 | O=C(Nc1nc2ccccc2[nH]1)Nc1ccccc1F | inconclusive [inhibitor, partial curve] | 
47 | O=C(CCl)Nc1ccc(S(=O)(=O)NC2=NCCCCC2)cc1 | active: 13 µM | 
48 | CCC(Oc1ccccc1)C(=O)Nc1cc(-c2cccc(C)c2)nn1-c1ccccc1 (stereo not drawn) |  | inactive: -6.83%
49 | CSCCC(NS(=O)(=O)c1ccccc1F)C(=O)NCc1ccncc1 (stereo not drawn) |  | inactive: -4.83%
50 | CN(Cc1ccc(Cl)cc1Cl)C(=O)CN1C(=O)NC2(CCCC2)C1=O | inconclusive [inhibitor, partial curve] | 

Row | Compound | Potency | activity change, negative = growth inhibition
51 | O=C(O)c1c(C(=O)O)c(-c2ccc(Cl)c(Cl)c2)n2c1CSC2 |  | inactive: 5.56%
52 | CN(C)c1ncnc2ccc(-c3cccc(C#N)c3)cc12 | inconclusive [inhibitor, partial curve] | 
53 | COc1ccc(-n2c(C)cc(C)c(C(C)=O)c2=S)cc1 |  | inactive: -7.56%
54 | Cc1csc(NC(=O)NC2(C(F)(F)F)Oc3ccccc3O2)n1 | inconclusive [inhibitor, single point] | 
55 | O=C(/C=C/c1ccccc1)c1ccccc1 |  | inactive: -69.4%
56 | CN(C)C(=O)CSc1ccc(S(=O)(=O)N2CCOCC2)cn1 |  | inactive: 15.4%
57 | CCOCCCNC(=O)c1cnc2sc(N3CCCCC3)nn2c1=O |  | inactive: 1.44%
58 | O=C1/C(=C/c2ccc(O)c([N+](=O)[O-])c2)SC(=S)N1Cc1ccccc1 | active: 18.4 µM | 
59 | O=C(Nc1ccc2c(c1)OCO2)c1cc(C2CCCCN2C(=O)c2ccc3c(c2)CCO3)on1 (stereo not drawn) | active: 25.9 µM | 
60 | COc1ccc(C(=O)NCC(=O)OCc2cccc(Br)c2)cc1 |  | inactive: -4.4%
61 | O=C(O)CCCn1cc(NC(=O)COc2cccc(Cl)c2)cn1 | inconclusive [inhibitor, full curve, poor fit] | 
62 | CCCCCn1c(CCNC(=O)c2ccc(F)cc2)nc2ccccc21 | active: 18.4 µM | 
63 | CCOC(=O)c1sc(NC(=O)CSc2nc(C)cc(C(F)(F)F)n2)c(C#N)c1C | inconclusive [inhibitor, single point] | 
64 | O=C(NCc1ccco1)c1csc(Nc2ccccc2Cl)n1 |  | inactive: -20.8%
65 | Cc1cc(C)cc(OCC(=O)N(Cc2cccs2)c2ccc(Cl)cc2)c1 | inconclusive [inhibitor, single point] | 
66 | Cc1cc(-c2ccc(C)c(S(=O)(=O)NCc3cccc(Br)c3)c2)on1 | inconclusive [inhibitor, single point] | 
67 | COc1ccc(N(C)S(=O)(=O)c2cccc(C(=O)Nc3nc4ccccc4[nH]3)c2)cc1 | inconclusive [inhibitor, single point] | 
68 | CN(C)S(=O)(=O)N1CCC(CCCC2CCN(S(=O)(=O)N(C)C)CC2)CC1 | inconclusive [inhibitor, single point] | 
69 | CCCn1c(C)cc(C(=O)COC(=O)c2ccc[nH]c2=O)c1C | inconclusive [inhibitor, partial curve, poor fit] | 
70 | CCCCC(=O)Nc1ccc(N2CCN(C(=O)c3ccco3)CC2)cc1 |  | inactive: -3.61%
71 | CC(C)CCNc1nc2c(c(=O)n(Cc3cccc(F)c3)c(=O)n2C)n1C | inconclusive [inhibitor, single point] | 
72 | CCOc1ccc(CCNC(=O)Cc2ccc(NC(=O)C3=C(C)OCCS3)cc2)cc1 | inconclusive [inhibitor, partial curve] | 
73 | Cc1ccccc1N(C(=O)Cc1cccs1)C(C(=O)NC1CCCCC1)c1cn(C)nc1C (stereo not drawn) | inconclusive [inhibitor, partial curve] | 
